# Source: the supplement of paper PMC12217912
# This is one part of the list. Sequences were assembled here from the parent chain. Values near 0.05 are background.
# B1: TEV protease; numbered along this chain (parent)
# chain: MGESLFKGPRDYNPISSSICHLTNESDGHTTSLYGIGFGPFIITNKHLFRRNNGTLVVQSLHGVFKVKDTTTLQQHLVDGRDMIIIRMPKDFPPFPQKLKFREPQREERICLVTTNFQTKSMSSMVSDTSCTFPSGDGIFWKHWIQTKDGQCGSPLVSTRDGFIVGIHSASNFTNTNNYFTSVPKNFMELLTNQEAQQWVSGWRLNADSVLWGGHKVFMVKPEEPFQPVKEATQL
# Variants of: B1
# Assay: raw area under fraction-flipped curve 0-4 h after induction (AUC4h, not background-subtracted), DNA-recorder readout of cleavage of the substrate (dimensionless); higher = more cleavage of the substrate by the protease variant
# Conditions: temperature: 34 °C; time window: 0-4 h after rhamnose induction
# Description: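 In vivo DNA recorder in E. coli TOP10(DE3) ΔrhaA at 34 °C. Each TEVp single-site mutant (parent TEVp 0) is paired with a single-site variant of the 7-mer TEVs (canonical ENLYFQ|S). The substrate sits between flexible linkers in a Bxb1-sfGFP-TEVs-SsrA fusion, so cleavage stabilises Bxb1 and speeds flipping of a recombination array, read by NGS. The value is the raw area under the fraction-flipped curve over 0-4 h after rhamnose induction (AUC4h), with ≥20 reads per time point. It is not background-subtracted; inactive controls average about 0.047.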
# 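Further: Bxb1 expression induced with 0.2% (w/v) L-rhamnose at OD600 near 0.5, cultures sampled hourly, flipped fraction per protease–substrate barcode pair counted by paired-end Illumina sequencing.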
Variant,area with substrate ECLYFQS,area with substrate EILYFQS,area with substrate EKLYFQS,area with substrate ELLYFQS,area with substrate EMLYFQS,area with substrate EQLYFQS,area with substrate ESLYFQS,area with substrate EWLYFQS,area with substrate EYLYFQS,area with substrate EDLYFQS
F133T,0.118,0.115,0.1,0.115,0.112,0.125,0.122,0.108,0.132,–
F173R,0.0833,–,–,0.0727,–,0.0909,0.0928,–,0.0911,–
F218D,–,0.0524,–,–,–,–,0.074,–,0.0696,0.112
F218Y,0.123,0.102,–,–,–,–,–,–,–,–
T119P,0.134,0.0795,0.104,–,–,–,0.104,–,–,–
M83Y,0.058,0.0261,0.0748,0.0461,–,0.0606,0.05,–,–,–
I43M,0.0827,0.0786,0.0785,0.0925,0.0793,0.0925,–,–,–,0.0876
K7P,0.102,0.0808,0.0923,0.0726,–,0.0909,–,0.0758,–,–
K7I,0.07,–,0.0733,–,0.0794,0.0782,0.0561,–,0.0525,–
F6R,0.091,0.105,–,0.0908,–,–,0.0976,0.0804,–,–
L190S,0.0595,0.0587,0.0947,0.0788,–,–,0.106,0.102,0.0883,–
L190C,0.1,–,–,–,–,0.109,0.112,0.0514,–,–
F180Q,0.0714,–,–,0.0527,–,–,0.0659,–,–,–
N193R,0.0856,–,0.109,–,0.0982,0.1,–,–,–,–
W199V,0.113,–,–,0.0532,0.0696,0.0653,0.0718,0.0582,0.0605,–
V126L,0.119,0.0751,–,0.119,–,–,0.0948,–,–,–
G35N,0.0387,–,0.0156,–,–,–,–,–,–,–
T114D,0.124,–,–,–,–,0.156,–,0.0865,–,–
F163T,–,0.0503,–,–,0.098,–,0.0814,0.096,0.0837,0.0983
Q151R,0.0876,–,0.092,0.0673,0.111,–,0.0968,0.0422,0.123,–
I164R,0.0521,0.0563,0.0567,0.0531,0.0519,0.078,0.0582,0.0678,0.0589,0.0609
I86G,0.0485,0.0347,–,0.0315,–,0.0385,0.0393,–,–,–

Variant,area with substrate ECLYFQS,area with substrate EILYFQS,area with substrate EKLYFQS,area with substrate ELLYFQS,area with substrate EMLYFQS,area with substrate EQLYFQS,area with substrate ESLYFQS,area with substrate EWLYFQS,area with substrate EYLYFQS,area with substrate EDLYFQS
D149H,–,0.0754,0.0763,–,0.0713,0.0849,0.064,0.0785,0.0809,0.141
L205A,0.0629,–,–,–,–,0.0762,0.0885,–,0.0861,–
K148D,0.0844,0.069,0.0749,–,0.105,0.0794,0.0842,–,–,–
F41K,0.0445,0.056,–,0.0461,–,0.0663,0.0667,–,–,–
N175W,0.0671,0.0584,–,–,0.0705,–,–,–,–,–
R109F,0.12,0.1,0.0968,–,0.119,–,0.128,0.0496,–,–
T147D,0.0763,0.0684,–,0.0741,–,–,–,0.0444,–,–
T71H,–,0.0809,–,0.0585,0.0974,0.0798,0.0772,–,–,0.1
F38D,0.0695,–,–,0.0476,–,–,–,–,0.0612,–
A207L,–,0.0937,0.091,0.0732,0.0639,–,0.083,–,–,0.101
P9H,0.116,–,–,0.106,0.117,–,0.104,0.101,–,–
Q97K,0.103,0.0828,–,0.0923,–,–,0.11,–,–,–
Q97F,0.102,–,–,–,–,–,0.102,–,–,–
P93F,0.0994,0.0873,0.0873,–,–,–,0.0792,–,0.102,–
P93N,0.11,0.121,0.0921,–,–,–,–,–,–,–
T159R,0.169,0.0987,0.134,–,–,–,–,0.136,–,–
Y179W,0.0541,0.0672,–,–,–,–,0.0701,–,–,–
Y179V,–,–,–,–,–,–,0.0795,–,–,0.0625
K66C,0.105,–,–,0.0887,0.126,0.153,0.118,0.104,0.129,–
T55H,0.12,0.105,0.0738,–,0.121,0.0897,0.104,0.0938,0.106,0.14
L235S,0.124,–,–,–,–,0.115,0.0637,0.113,–,–
R87W,0.139,0.0964,0.0979,–,–,–,0.0974,0.106,–,–

# Same assay, conditions: temperature: 34 °C; time window: 0-4 h after rhamnose induction
Variant,area with substrate EELYFQS,area with substrate EHLYFQS,area with substrate EPLYFQS,area with substrate EVLYFQS,area with substrate ERLYFQS,area with substrate ETLYFQS,area with substrate EALYFQS,area with substrate EGLYFQS,area with substrate EFLYFQS
F218D,0.0913,0.0934,0.106,0.0728,–,–,–,–,–
F218Y,–,0.115,–,–,0.108,0.162,–,–,–
T119P,–,–,–,0.111,–,–,–,–,–
M83Y,–,–,–,0.0602,0.01,0.0791,–,–,–
I43M,0.0883,0.0929,0.0924,0.0893,0.0644,0.138,0.0984,0.074,–
K7P,–,–,0.102,0.0829,–,0.0955,–,–,–
K7I,–,–,–,–,0.0732,–,–,0.0712,–
F6R,–,–,0.0934,–,–,–,–,0.0989,–
L190S,–,–,–,0.0765,0.0647,0.11,–,–,–
L190C,–,0.0907,0.0849,0.0172,0.0934,–,–,0.0949,–
N193R,–,–,0.0967,–,0.0889,–,–,–,0.0737
W199V,–,0.0708,–,0.0595,0.0619,–,–,0.0924,–
G35N,–,0.0543,–,0.0332,–,–,–,0.0341,–
T114D,–,0.082,0.0983,–,0.0836,–,–,0.0853,–
F163T,–,–,0.0879,–,–,0.106,–,–,–
Q151R,–,0.128,0.134,0.0883,0.0821,–,–,–,–
I164R,0.0479,–,0.0491,0.0526,0.0544,0.0506,0.0608,0.0513,–
D149H,–,–,0.0711,–,–,–,–,–,0.115

Variant,area with substrate EELYFQS,area with substrate EHLYFQS,area with substrate EPLYFQS,area with substrate EVLYFQS,area with substrate ERLYFQS,area with substrate ETLYFQS,area with substrate EALYFQS,area with substrate EGLYFQS,area with substrate EFLYFQS
L205A,–,–,–,0.082,0.0751,0.0704,–,–,–
K148D,–,–,0.108,–,–,–,–,–,–
F41K,–,–,0.0645,0.0673,0.0707,–,–,0.058,–
N175W,–,–,–,0.0867,–,–,–,0.0603,–
R109F,–,–,0.0998,0.0857,0.125,–,–,–,0.0899
T147D,–,0.0803,–,–,–,–,–,–,–
T71H,–,0.0874,–,0.0797,0.0983,–,–,–,–
A207L,–,–,–,0.111,0.0892,–,–,–,–
Q97F,–,–,–,–,–,–,–,0.0959,–
P93F,–,–,–,–,–,0.0931,–,–,–
P93N,–,–,0.151,–,0.0955,–,–,–,–
T159R,–,–,–,–,–,–,–,–,0.13
Y179W,–,–,–,0.0513,–,0.0605,–,–,–
K66C,–,0.13,–,0.107,0.0993,–,0.125,–,0.0749
T55H,0.107,–,–,–,0.095,0.0898,0.12,–,0.105
L235S,–,–,–,0.0942,0.114,–,–,0.09,–
R87W,–,–,0.116,0.0891,0.102,–,–,0.095,–
